# Assay results published in PubChem BioAssay AID1159614 (National Center for Advancing Translational Sciences (NCATS), 2016).
# Among all 45,000 compounds or so, about 65 (0.1%) were called active. Calls come from the whole dose curve; as a rule, active = well fitted activation curve with a large enough effect; inconclusive = small, poorly fitted or top-dose-only effect; inactive = no such curve, though single readings can be large or run the other way. Some of the results follow.
# Biological target: Galactocerebrosidase (Homo sapiens) (UniProt P54803)
# Chain of UniProt P54803 (P54803 whole entry, looked up): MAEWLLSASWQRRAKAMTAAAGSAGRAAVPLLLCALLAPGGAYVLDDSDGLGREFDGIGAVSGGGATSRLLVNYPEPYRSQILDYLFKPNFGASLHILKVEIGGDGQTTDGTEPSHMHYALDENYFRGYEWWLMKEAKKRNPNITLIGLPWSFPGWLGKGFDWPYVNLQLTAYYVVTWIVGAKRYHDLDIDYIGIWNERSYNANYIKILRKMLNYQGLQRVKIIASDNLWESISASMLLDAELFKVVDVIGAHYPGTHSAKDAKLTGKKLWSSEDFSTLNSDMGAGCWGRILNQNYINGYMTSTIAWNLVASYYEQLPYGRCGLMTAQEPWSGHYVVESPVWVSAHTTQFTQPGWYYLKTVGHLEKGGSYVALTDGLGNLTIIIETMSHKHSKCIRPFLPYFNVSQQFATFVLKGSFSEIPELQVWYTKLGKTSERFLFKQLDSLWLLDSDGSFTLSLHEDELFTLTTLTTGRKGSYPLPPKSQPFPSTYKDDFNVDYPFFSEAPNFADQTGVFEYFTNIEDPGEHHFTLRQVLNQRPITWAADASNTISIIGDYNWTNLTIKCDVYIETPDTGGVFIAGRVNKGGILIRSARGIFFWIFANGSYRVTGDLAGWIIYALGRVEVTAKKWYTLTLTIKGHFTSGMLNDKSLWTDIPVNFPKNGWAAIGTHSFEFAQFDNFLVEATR
# Assay: A Novel Cell-Based Assay to Identify Small Molecules for B -Galactocerebrosidase; note: 0% is about no effect; nearly all actives have a fitted effect of over 65% in size
# Settings: 145M-Twi-hGALC-G270D cells, HMU-beta-Gal fluorescence, 48 h; series mostly up to 57.5 µM; activation: at the top concentration
# How it was run: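 qHTS, 1536-well; 145M-Twi-hGALC-G270D cells (WT line also made) in DMEM/F12 + 10% FBS; compound incubation on live cells; HMU-β-gal 0.1 mM final, pH 5.2, NaTC; carbonate stop; fluorescence increase = enhanced residual activity.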
row,SMILES,activation
1,CCOCCCNC(=O)C(c1ccc(C)cc1)N(Cc1ccc2c(c1)OCO2)C(=O)c1ccccc1O (configuration not stated),inactive: -6.49%
2,CCc1nn(CC(=O)N2CCN(c3cccc(C)c3)C(C)C2)c(=O)c2cc3sccc3n12 (configuration not stated),inactive: 7.04%
3,Cc1cc(C)c(NC(=O)CSc2nc(=O)n(Cc3ccncc3)c3c2CCC3)c(C)c1,inactive: -5.41%
4,CCOC(=O)N1CCc2c(sc(NCc3cc(OC)ccc3OC)c2C(=O)Nc2cc(OC)ccc2OC)C1,inactive: -7.47%
5,O=C(CSc1nc2c([nH]c3ccccc32)c(=O)n1-c1ccccc1)Nc1cccc(C(F)(F)F)c1,inactive: -1.77%
6,O=C(NC1CCCCC1)c1ccc(CSc2nc3ccncc3n2Cc2cccc(F)c2)cc1,inactive: -16.5%
7,CCc1ccc(CNC(=O)c2ccc3c(c2)c(C)c(C)n3Cc2ccccc2)cc1,inactive: -27.4%
8,Cc1ccc(N(C)C(=O)Cn2ncc3c([nH]c4ccccc43)c2=O)cc1C,inactive: -16.1%
9,COc1ccc(NC(=O)CCc2c(C)nn(-c3ccc(N4CCCC4)nn3)c2C)cc1Cl,inactive: 16.8%
10,Cc1ccc(S(=O)(=O)NC(=O)NC2CCCCCCC2)cc1,inactive: -8.07%
11,Cc1ccc(NC(=O)CCn2cccn2)c(C)c1,inactive: -7.59%
12,COc1ccc(N2CCN(C(=O)Cn3cnc4sc(C)c(S(=O)(=O)N5CCCCC5)c4c3=O)CC2)cc1,inactive: -13.3%
13,Cc1ccc(Cn2c(=O)n(CCc3ccccc3)c(=O)c3sc4ccccc4c32)cc1,inactive: -2.63%
14,CCOCCCNC(=O)C1CCN(c2nc3ccc(C)cc3[nH]2)CC1,inactive: 5.86%
15,COC(=O)c1cc(-c2ccc(Cl)cc2)c2c(=O)[nH]c(=O)n(C)c2n1,inactive: -11.1%
16,COCCn1c(C)cc(O)c(C(c2ccccc2)N2CCN(c3ccccc3F)CC2)c1=O (configuration not stated),inactive: -0.0281%
17,O=C(CSc1cn(CCNC(=O)c2ccccc2F)c2ccccc12)Nc1ccc2c(c1)OCCO2,inactive: -10.7%
18,CC(Nc1ccc(-c2nc(-c3cccnc3)no2)cc1[N+](=O)[O-])c1ccccc1 (configuration not stated),inactive: -10.2%
19,CCS(=O)(=O)c1ccc(C(=O)N2CCN(c3nc4c(OC)ccc(C)c4s3)CC2)cc1,inactive: -40%
20,O=C(O)CN(CCOCCOCCN(CC(=O)O)CC(=O)O)CC(=O)O,inactive: -13.1% [at 0.46 µM]
21,COc1cc([C@@H]2c3cc4c(cc3[C@H](O)[C@H]3COC(=O)[C@H]23)OCO4)cc(OC)c1OC,inactive: -6.6%
22,CC1CCCCN1Cc1nc2c(c(=O)n(C)c(=O)n2C)n1Cc1ccc(Br)cc1 (configuration not stated),inactive: -12.1%
23,Cc1ccc2c(Sc3ccc(Cl)cc3)c(C(=O)N3CCCCC3)[nH]c2c1,inactive: -16.3%
24,COc1ccc(NC(=O)c2c(-c3ccc(C)cc3)nnc3ccccc23)cc1OC,inactive: -7.74%

row,SMILES,activation
1,COc1ccccc1-c1nc(CNC(=O)NC2CCCCC2)c(C)o1,inactive: -10.3%
2,COc1cccc(NC(=O)CSc2cc(C)c3ccccc3n2)c1,inactive: -8.67%
3,O=C(Cn1ncc2ccsc2c1=O)N1CCN(c2ccc(Cl)cc2)CC1,inactive: -12.8%
4,Cc1ccc(NC(=O)CCn2nc(C)c3c(C)n(-c4ccccc4)nc3c2=O)cc1Cl,inactive: -13.7%
5,CC(C)c1ccc(NC(=O)c2cn(C3CCCC3)c(=O)c3c2c2ccccc2n3C)cc1,inactive: -14.6%
6,O=C(c1ccccc1Cl)n1nc(-c2ccco2)nc1NCc1cccs1,inactive: -25%
7,COc1ccc(OC)c(CCNc2ncnc3onc(-c4ccc(Cl)cc4)c23)c1,inactive: -19.9%
8,Cc1cccc(CNC(=O)c2cnc3c(-c4cccc(C)c4)c(C)nn3c2C)c1,inactive: -8.8%
9,CCCCC(=O)N1c2ccccc2C(C)(c2ccccc2)CC1(C)C (configuration not stated),inactive: -17.1%
10,Cn1c(=O)c2cc(S(=O)(=O)NC(Cc3ccccc3)C(=O)Nc3ccc(F)cc3)ccc2n(C)c1=O (configuration not stated),inactive: -6.42%
11,CC(=O)N1CCCc2cc(S(=O)(=O)N(C)CC(=O)Nc3cccc(Cl)c3C)ccc21,inactive: -0.162%
12,CCc1ccc(S(=O)(=O)NCCc2cn3ccsc3n2)cc1,inactive: 4%
13,Cc1nc(-n2nc(C)c(Cc3ccc(Cl)cc3)c2C)sc1C(=O)N1CCC(C)CC1,inactive: -2.82%
14,Cc1ccc(NC(=O)CSc2nc3c(oc4ccccc43)c(=O)n2Cc2ccco2)cc1F,inactive: -3.48%
15,Cc1ccccc1Cn1c2ccccc2c2cnn(CC(=O)NCc3cccc(Cl)c3)c(=O)c21,inactive: -24.5%
16,CCN(CC)c1ccc(NC(=O)COCc2cc(-c3ccc4c(c3)OCO4)on2)c(C)c1,inactive: -21.1%
17,Cc1ccc(N2CCN(C(=O)c3c(C)oc4ncn(C)c(=O)c34)CC2)c(C)c1,inactive: -10%
18,CCOC(=O)c1ccc(CN(Cc2ccc(F)cc2)S(=O)(=O)c2ccc(F)c(C(=O)Nc3cc(Cl)ccc3OC)c2)cc1,inactive: -15.8%
19,Cn1cc(-c2cc3n(n2)CCC(=O)N3CCCC(=O)Nc2ccc(Cl)cc2)c2ccccc21,inactive: -2.77%
20,CC(=O)N1CCCc2cc(S(=O)(=O)N(C)CC(=O)Nc3ccc(C(C)C)cc3)ccc21,inactive: 18.4%
21,CC(C)c1ccc(OCC(=O)Nc2ccc(S(=O)(=O)Nc3ncccn3)cc2)cc1,inactive: -10.4%
22,OC1(c2ccc(Cl)cc2)CCNCC1,inactive: -15.7%
23,COc1ccc(NC(=O)Cn2ccn(-c3ccc(F)c(F)c3)c(=O)c2=O)cc1Cl,inactive: -20.7%
